Assay [1] has as its system Colletotrichum orbiculare. Particulars: 250 ppm spray, 2.5 ml/pot; investigated 6 to 10 days after inoculation.
Assay [2] has as its system Phytophthora infestans. In kind it is in vivo. The settings on record: class of control value, Table 7.
Assay [3] relates to Magnaporthe grisea. It is filed as in vivo. The settings on record: class of control value, Table 7.

The results in this text go back to US11178870B2 (priority 2017, dated 2021).

For `CCn1c(-c2c(F)cccc2Cl)c(-n2cc(F)cn2)cc(Cl)c1=O` [Compound 379], the “Test H control value (anthracnose on cucumber)” value (“Test H control value” for short) in assay [1] is reported as “H (H shows the control value more than 50%)”.

`CCn1c(-c2c(F)cccc2F)c(-c2sc(Br)cc2C)cc(Br)c1=O` [Compound 388]: in assay [2], the “Test F control value (late blight on tomato)” value (from here on “Test F control value”) was “L (L shows the control value of 50% or less)”. For the same molecule, the “Test A control value (blast on rice)” value in assay [3] was “H (H shows the control value more than 50%)”. Besides, the “Test H control value” value in assay [1] is “L (L shows the control value of 50% or less)”.

As to `CCn1c(-c2c(F)cccc2F)c(-c2sc(Br)cc2Cl)cc(Br)c1=O` [Compound 398], the “Test F control value” value in assay [2] is given as “L (L shows the control value of 50% or less)”. In addition, the “Test A control value (blast on rice)” value in assay [3] was “H (H shows the control value more than 50%)”. For the same molecule, the “Test H control value” value in assay [1] is recorded as “H (H shows the control value more than 50%)”.

As to `CCn1c(-c2c(F)cccc2F)c(-c2sc(Cl)cc2Cl)cc(Cl)c1=O` [Compound 396], the “Test F control value” value in assay [2] is on record as “L (L shows the control value of 50% or less)”. Besides, in assay [3], the “Test A control value (blast on rice)” value is “H (H shows the control value more than 50%)”. Also, the “Test H control value” value in assay [1] is on record as “L (L shows the control value of 50% or less)”.
